Results reported in PMC9663306.
Results are given in words; binding and its absence hold for the method and conditions named. Binding seen in cells or lysates may run through a third protein. Some results given as binding are weak or reduced against the parent protein; the word gives no strength. For some assays here: Where a sequence is shown, tags or fusion partners need not be part of it.

Sequences of proteins named here, by UniProt entry; tags and fusion partners are left off. Residues count along the entry.
UniProt Q16552, residues 24-155: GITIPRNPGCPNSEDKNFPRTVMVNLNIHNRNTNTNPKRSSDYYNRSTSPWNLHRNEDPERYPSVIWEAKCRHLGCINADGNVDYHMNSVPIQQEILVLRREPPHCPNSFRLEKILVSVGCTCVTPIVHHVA
UniProt Q60943, residues 32-864: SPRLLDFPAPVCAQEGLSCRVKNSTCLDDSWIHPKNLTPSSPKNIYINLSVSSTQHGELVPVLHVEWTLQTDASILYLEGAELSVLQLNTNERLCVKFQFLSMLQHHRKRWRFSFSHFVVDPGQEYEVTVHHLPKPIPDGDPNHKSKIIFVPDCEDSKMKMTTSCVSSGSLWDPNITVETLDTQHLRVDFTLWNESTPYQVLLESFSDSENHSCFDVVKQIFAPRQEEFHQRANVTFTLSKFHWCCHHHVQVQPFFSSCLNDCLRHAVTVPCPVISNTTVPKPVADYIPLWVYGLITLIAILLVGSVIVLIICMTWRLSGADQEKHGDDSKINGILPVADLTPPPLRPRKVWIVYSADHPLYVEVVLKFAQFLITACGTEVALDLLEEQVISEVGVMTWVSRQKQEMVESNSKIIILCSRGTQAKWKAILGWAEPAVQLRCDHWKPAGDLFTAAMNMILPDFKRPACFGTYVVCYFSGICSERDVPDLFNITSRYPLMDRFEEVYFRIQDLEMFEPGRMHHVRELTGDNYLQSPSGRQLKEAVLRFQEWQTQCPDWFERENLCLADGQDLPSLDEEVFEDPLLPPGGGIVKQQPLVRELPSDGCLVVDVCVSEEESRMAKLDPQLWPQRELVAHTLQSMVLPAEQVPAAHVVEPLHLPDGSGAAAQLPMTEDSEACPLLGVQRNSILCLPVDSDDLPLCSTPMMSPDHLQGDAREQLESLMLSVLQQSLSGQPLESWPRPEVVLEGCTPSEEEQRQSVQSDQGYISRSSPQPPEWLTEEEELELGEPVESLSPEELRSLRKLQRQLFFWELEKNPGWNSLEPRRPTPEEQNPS
UniProt O43734: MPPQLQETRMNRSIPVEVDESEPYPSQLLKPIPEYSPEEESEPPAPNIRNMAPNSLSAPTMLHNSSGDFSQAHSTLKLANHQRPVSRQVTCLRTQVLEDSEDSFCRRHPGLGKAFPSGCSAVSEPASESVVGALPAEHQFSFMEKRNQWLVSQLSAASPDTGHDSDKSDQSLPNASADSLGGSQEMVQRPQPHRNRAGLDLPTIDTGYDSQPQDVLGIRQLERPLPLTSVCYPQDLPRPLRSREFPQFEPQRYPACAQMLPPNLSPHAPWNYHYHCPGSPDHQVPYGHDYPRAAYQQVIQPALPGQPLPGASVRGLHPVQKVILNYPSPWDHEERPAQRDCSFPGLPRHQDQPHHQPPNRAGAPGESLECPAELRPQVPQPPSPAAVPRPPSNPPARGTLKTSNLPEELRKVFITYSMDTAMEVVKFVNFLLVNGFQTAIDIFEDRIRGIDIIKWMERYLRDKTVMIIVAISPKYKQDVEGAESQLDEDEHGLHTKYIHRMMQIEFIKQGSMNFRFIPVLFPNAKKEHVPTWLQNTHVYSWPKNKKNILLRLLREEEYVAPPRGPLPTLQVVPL
UniProt Q8CJ61: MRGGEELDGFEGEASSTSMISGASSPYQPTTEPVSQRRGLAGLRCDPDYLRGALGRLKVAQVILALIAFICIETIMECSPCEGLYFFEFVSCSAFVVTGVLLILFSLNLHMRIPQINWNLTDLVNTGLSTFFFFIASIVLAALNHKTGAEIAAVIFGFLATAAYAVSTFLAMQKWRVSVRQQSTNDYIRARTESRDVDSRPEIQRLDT

Assays:
[1] = target: Strep-Flag-tagged human IL-17A (human) (UniProt Q16552); assay: co-IP; HeLa cells (wild-type; CMTM4−/− beside them) stimulated with SF-IL-17A (500 ng/ml, 15 min) or left unstimulated with SF-IL-17A added post lysis; Flag IP, immunoblot; only the target purified
[2] = target: SF-IL-17RA in Drosophila S2 cells (mouse) (UniProt Q60943); assay: co-IP; anti-FLAG M2 agarose IP from lysates of Drosophila S2 cells stably transfected with SF-IL-17RA or SF-IL-17RC together with Myc-CMTM4, expression induced with 500 µM CuSO4, immunoblot
[3] = target: T1, SF-IL-17RC in Drosophila S2 cells (mouse) (UniProt Q8K4C2); assay: as above
T1 sequence: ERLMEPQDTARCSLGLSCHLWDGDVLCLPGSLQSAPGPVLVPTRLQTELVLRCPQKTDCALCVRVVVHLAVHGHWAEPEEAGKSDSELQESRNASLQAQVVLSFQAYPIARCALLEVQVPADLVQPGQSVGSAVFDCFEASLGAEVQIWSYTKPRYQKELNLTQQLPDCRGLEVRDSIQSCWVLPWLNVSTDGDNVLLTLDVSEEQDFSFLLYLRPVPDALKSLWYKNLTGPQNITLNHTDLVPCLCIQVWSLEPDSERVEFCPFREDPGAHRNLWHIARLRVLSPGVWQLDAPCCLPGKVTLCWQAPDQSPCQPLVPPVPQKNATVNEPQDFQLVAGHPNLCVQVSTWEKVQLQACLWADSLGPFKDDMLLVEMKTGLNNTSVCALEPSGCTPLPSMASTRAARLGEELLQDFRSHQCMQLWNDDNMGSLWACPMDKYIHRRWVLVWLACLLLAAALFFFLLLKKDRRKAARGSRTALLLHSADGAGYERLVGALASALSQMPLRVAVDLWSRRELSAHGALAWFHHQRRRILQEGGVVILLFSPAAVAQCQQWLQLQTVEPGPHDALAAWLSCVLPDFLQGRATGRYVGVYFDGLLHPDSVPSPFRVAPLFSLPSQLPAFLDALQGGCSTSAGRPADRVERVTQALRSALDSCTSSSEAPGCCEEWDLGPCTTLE

[4] = target: T2, SF-IL-17RC (murine IL-17RC with C-terminal 2xStrep-3xFlag tag), in ST2 cells (mouse) (UniProt Q8K4C2); assay: co-IP; Flag IP from lysates of Cmtm4−/− ST2 cells transduced with Myc-tagged members of the CMTM family (CMTM1–8) together with SF-IL-17RC, immunoblot
T2 sequence (chain, N-glycosylated (100 kDa and 150 kDa forms)): T1 sequence

[5] = target: T2, SF-IL-17RC (murine IL-17RC with C-terminal 2xStrep-3xFlag tag), in ST2 cells (mouse); assay: co-IP; Flag IP from lysates of ST2 cells retrovirally transduced with SF-IL-17RC together with Myc-tagged CMTM4, CMTM6 or chimeric proteins, immunoblot

## ACT1 (endogenous, human HeLa cells) (from UniProt O43734 1-574)
[1]
  binding: binds

## Myc-tagged CMTM4 in Drosophila S2 cells (from UniProt Q8CJ61 1-208)
[2]
  binding: no binding
[3]
  binding: binds

## Myc-tagged CMTM4 in ST2 cells (from UniProt Q8CJ61 1-208)
[4]
  binding: binds
[5]
  binding: binds
